The supplement of paper PMC12217912
Some of the results follow. Sequences were assembled here from the parent chain. Values near 0.05 are background.

B1: TEV protease; numbered along this chain (parent)
chain: MGESLFKGPRDYNPISSSICHLTNESDGHTTSLYGIGFGPFIITNKHLFRRNNGTLVVQSLHGVFKVKDTTTLQQHLVDGRDMIIIRMPKDFPPFPQKLKFREPQREERICLVTTNFQTKSMSSMVSDTSCTFPSGDGIFWKHWIQTKDGQCGSPLVSTRDGFIVGIHSASNFTNTNNYFTSVPKNFMELLTNQEAQQWVSGWRLNADSVLWGGHKVFMVKPEEPFQPVKEATQL

Variants of: B1
Test: raw area under fraction-flipped curve 0-4 h after induction (AUC4h, not background-subtracted), DNA-recorder readout of cleavage of the substrate (dimensionless); higher = more cleavage of the substrate by the protease variant
Conditions: temperature: 34 °C; time window: 0-4 h after rhamnose induction
Description: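 In vivo DNA recorder in E. coli TOP10(DE3) ΔrhaA at 34 °C. Each TEVp single-site mutant (parent TEVp 0) is paired with a single-site variant of the 7-mer TEVs (canonical ENLYFQ|S). The substrate sits between flexible linkers in a Bxb1-sfGFP-TEVs-SsrA fusion, so cleavage stabilises Bxb1 and speeds flipping of a recombination array, read by NGS. The value is the raw area under the fraction-flipped curve over 0-4 h after rhamnose induction (AUC4h), with ≥20 reads per time point. It is not background-subtracted; inactive controls average about 0.047.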
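Note: Bxb1 expression induced with 0.2% (w/v) L-rhamnose at OD600 near 0.5, cultures sampled hourly, flipped fraction per protease–substrate barcode pair counted by paired-end Illumina sequencing.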

Variant	area with substrate ENLYFQA	area with substrate ENLYFQC	area with substrate ENLYFQD	area with substrate ENLYFQI	area with substrate ENLYFQK	area with substrate ENLYFQL	area with substrate ENLYFQM	area with substrate ENLYFQN	area with substrate ENLYFQS	area with substrate ENLYFQV	area with substrate ENLYFQW	area with substrate ENLYFQG	area with substrate ENLYFQP	area with substrate ENLYFQR	area with substrate ENLYFQT	area with substrate ENLYFQY	area with substrate ENLYFQE	area with substrate ENLYFQH	area with substrate ENLYFQQ	area with substrate ENLYFQF
MGESLFKGPRDYNPISSSICHLTNHSDGHTTSLYGIGFGPFIITNKHLFRRNNGTLVVQSLHGVFKVKDTTTLQQHLVDGRDMIIIRMPKDFPPFPQKLKFREPQREERICLVTTNFQTKSMSSMVSDTSCTFPSGDGIFWKHWIQTKDGQCGSPLVSTRDGFIVGIHSASNFTNTNNYFTSVPKNFMELLTNQEAQQWVSGWRLNADSVLWGGHKVFMVKPEEPFQPVKEATQL [E25H]	0.0837	0.106	0.0558	0.0646	0.0536	0.0617	0.0757	0.0927	0.0984	0.0597	0.0376	–	–	–	–	–	–	–	–	–
MGESLFKGPRDYNPISSSICHLTNESDGHTTSLYGIGFGPFIITNKHLFRRNNGTLVVQSLHGVFKVKDTTTLQQHLVDGRDMIIIRMPKDFPPFPQKLKFREPQYEERICLVTTNFQTKSMSSMVSDTSCTFPSGDGIFWKHWIQTKDGQCGSPLVSTRDGFIVGIHSASNFTNTNNYFTSVPKNFMELLTNQEAQQWVSGWRLNADSVLWGGHKVFMVKPEEPFQPVKEATQL [R106Y]	0.0787	0.117	–	0.0533	0.0648	0.0576	0.0932	0.0764	0.101	0.0575	0.0668	0.116	0.066	0.0665	0.0688	0.0622	–	–	–	–
MGESLFKGPRDYNPISSSICHLTNESDGHTTSLYGIGFGPFIITNKHLFRRNNGTLVVQSLHGVFKVWDTTTLQQHLVDGRDMIIIRMPKDFPPFPQKLKFREPQREERICLVTTNFQTKSMSSMVSDTSCTFPSGDGIFWKHWIQTKDGQCGSPLVSTRDGFIVGIHSASNFTNTNNYFTSVPKNFMELLTNQEAQQWVSGWRLNADSVLWGGHKVFMVKPEEPFQPVKEATQL [K68W]	0.131	–	0.0951	0.0379	0.0617	0.0679	0.0778	0.0708	0.108	–	0.0712	–	–	–	–	0.0507	0.108	0.0878	0.0722	–
MGESLFKGPRDYNPISSSICHLTNESDGHTTSLYGIGFGPFIITNKHLFRRNNGTLVVQSLHGVFKVKDTTTLQQHLVDGRDMIIIRMPKDFPPFPQKGKFREPQREERICLVTTNFQTKSMSSMVSDTSCTFPSGDGIFWKHWIQTKDGQCGSPLVSTRDGFIVGIHSASNFTNTNNYFTSVPKNFMELLTNQEAQQWVSGWRLNADSVLWGGHKVFMVKPEEPFQPVKEATQL [L99G]	0.0658	0.0923	–	–	–	–	–	–	0.0875	–	0.0357	–	0.0612	0.0655	–	0.0621	–	–	–	–
MGESLFKGPRDYNPISSSICHLTNESDGHTTSLYGIGFGPFIITNKHLFRRNNGTLVVQSLHGVFKVKDTTTLQQHLVDGRDMIIIRMPKDIPPFPQKLKFREPQREERICLVTTNFQTKSMSSMVSDTSCTFPSGDGIFWKHWIQTKDGQCGSPLVSTRDGFIVGIHSASNFTNTNNYFTSVPKNFMELLTNQEAQQWVSGWRLNADSVLWGGHKVFMVKPEEPFQPVKEATQL [F92I]	0.076	–	0.0704	–	–	0.0565	0.0778	0.0642	0.0975	0.0657	–	0.107	0.0487	0.0589	0.07	–	–	0.078	–	0.0629
MGESLFKGPRDYNPISSSICHLTNESDGHTTSLYGIGFGPFIITNKHLFRRNNGTLVVQSLHGVFKVKDTTTLQQHLVDGRDMIIIRMPKDFPPFPQKLKFREPQRPERICLVTTNFQTKSMSSMVSDTSCTFPSGDGIFWKHWIQTKDGQCGSPLVSTRDGFIVGIHSASNFTNTNNYFTSVPKNFMELLTNQEAQQWVSGWRLNADSVLWGGHKVFMVKPEEPFQPVKEATQL [E107P]	0.0946	0.0853	0.0705	–	0.0576	0.062	0.0894	0.0275	0.0973	0.0621	0.0573	–	0.0462	0.0502	–	–	0.0681	0.0733	–	–
MGESLFKGPRDYNPISSSICHLTNESDGHTTSLYGIGFGPFIITNKHLFRRNNGTLVVQSLHGVFKVDDTTTLQQHLVDGRDMIIIRMPKDFPPFPQKLKFREPQREERICLVTTNFQTKSMSSMVSDTSCTFPSGDGIFWKHWIQTKDGQCGSPLVSTRDGFIVGIHSASNFTNTNNYFTSVPKNFMELLTNQEAQQWVSGWRLNADSVLWGGHKVFMVKPEEPFQPVKEATQL [K68D]	0.0992	0.112	–	0.0567	0.0673	0.095	0.116	0.0823	0.117	0.0361	0.0798	0.154	0.0307	0.0601	0.0532	–	–	–	–	0.114
MGESLFKGPRDYNPISTSICHLTNESDGHTTSLYGIGFGPFIITNKHLFRRNNGTLVVQSLHGVFKVKDTTTLQQHLVDGRDMIIIRMPKDFPPFPQKLKFREPQREERICLVTTNFQTKSMSSMVSDTSCTFPSGDGIFWKHWIQTKDGQCGSPLVSTRDGFIVGIHSASNFTNTNNYFTSVPKNFMELLTNQEAQQWVSGWRLNADSVLWGGHKVFMVKPEEPFQPVKEATQL [S17T]	0.111	0.122	0.0844	0.0559	–	0.0663	0.091	–	0.113	0.0471	0.0666	0.101	0.0722	0.059	0.0692	–	–	–	–	–
MGESLFKGPRDYNPISSSICHLTNESDGHTTSLYGIGFGPFIITNKHLFRRNNGTLVVQSLHGVFKVKDTTTLQQHLVDGRDMIIIRMPKDFPPFPQKLKFREPQREERICLVTTNFQTKSMSSMVSDTSCTFPSGDGIFWKHWIFTKDGQCGSPLVSTRDGFIVGIHSASNFTNTNNYFTSVPKNFMELLTNQEAQQWVSGWRLNADSVLWGGHKVFMVKPEEPFQPVKEATQL [Q146F]	0.129	0.111	–	0.0584	0.0609	–	0.0904	0.0813	0.116	0.0646	–	–	–	–	–	–	–	0.089	–	–
